Source: a collection of fitness landscapes (doi:10.1016/j.celrep.2020.107928)
Whole data set: some 81,000 sequences, median “one-hybrid fitness for binding NBS DNA” near -0.1, cut for the highest 2% near 0.36. Some of the results follow.

B1: Caulobacter ParB omega fusion; a variant is named by its letters at X, in order, B8GW30 (parent)
chain: MESVVVGEPGMSEGRRGLGRGLSALLGEVDAAPAQAPGEQLGGSREAPIEILQRNPDQPRRTFREEDLEDLSNSIREKGVLQPILVRPSPDTAGEYQIVAGERAWRAAQRAGLKTVPIMVRELDDLAVLEIGIIENVQRADLNVLEEALSYKVLMEKFERTQENIAQTIGKSXSHVANXMRLLXLPDEVQSYLVSGELTAXHARAIAAAADPVALAKQIIEGGLSVRETEALARKAPNLSAGKSKGGRPPRVKDTDTQALESDLSSVLGLDVSIDHRGSTGTLTITYATLEQLDDLCNRLTRGI

Variants of: B1
Test: one-hybrid fitness for binding NBS DNA (the Noc-binding site; scaled: cognate 1, non-cognate 0); higher = stronger binding
Conditions: with NBS DNA site
Method in brief: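 Bacterial one-hybrid selection in E. coli USO rpoZ- hisB- pyrF- with a HIS3 reporter carrying the site 19 bp from the promoter, screening Caulobacter ParB libraries with four specificity codons randomised (NNS). Cells grew 48 hours at 37°C on M9-minus-histidine plus 0.1 mM IPTG and 5 mM 3-AT. Plasmids before and after selection were Illumina-sequenced, three replicate libraries pooled, and variants under 10 reads dropped. Fitness is the log change in variant-to-wild-type read ratio, rescaled to cognate 1, non-cognate 0.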

RDII and TTMS cannot be ordered by “one-hybrid fitness for binding NBS DNA” value: ≤ 0.2 for the first, ≤ 0.2 for the second.

RGHQ and LPGC cannot be ordered by “one-hybrid fitness for binding NBS DNA” value: ≤ 0.2 for the first, ≤ 0.2 for the second.

QVNG and KHLP cannot be ordered by “one-hybrid fitness for binding NBS DNA” value: ≤ 0.2 for the first, ≤ 0.2 for the second.

HRIV and KQHR cannot be ordered by “one-hybrid fitness for binding NBS DNA” value: ≤ 0.2 for the first, ≤ 0.2 for the second.

VQFR and IVPR cannot be ordered by “one-hybrid fitness for binding NBS DNA” value: ≤ 0.2 for the first, ≤ 0.2 for the second.

PNTN and LLYM cannot be ordered by “one-hybrid fitness for binding NBS DNA” value: ≤ 0.2 for the first, ≤ 0.2 for the second.

HGES and PWVL cannot be ordered by “one-hybrid fitness for binding NBS DNA” value: ≤ 0.2 for the first, ≤ 0.2 for the second.

VSIT and WIDS cannot be ordered by “one-hybrid fitness for binding NBS DNA” value: ≤ 0.2 for the first, ≤ 0.2 for the second.

QDLN and FFRT cannot be ordered by “one-hybrid fitness for binding NBS DNA” value: ≤ 0.2 for the first, ≤ 0.2 for the second.

CQVS and RNWV cannot be ordered by “one-hybrid fitness for binding NBS DNA” value: ≤ 0.2 for the first, ≤ 0.2 for the second.

GHLT and DQHT cannot be ordered by “one-hybrid fitness for binding NBS DNA” value: ≤ 0.2 for the first, ≤ 0.2 for the second.

PLGA and RGAK cannot be ordered by “one-hybrid fitness for binding NBS DNA” value: ≤ 0.2 for the first, ≤ 0.2 for the second.

ARGM and IRNA cannot be ordered by “one-hybrid fitness for binding NBS DNA” value: ≤ 0.2 for the first, ≤ 0.2 for the second.

GGEF and YKNL cannot be ordered by “one-hybrid fitness for binding NBS DNA” value: ≤ 0.2 for the first, ≤ 0.2 for the second.

KAWP and PEPW cannot be ordered by “one-hybrid fitness for binding NBS DNA” value: ≤ 0.2 for the first, ≤ 0.2 for the second.

YCSL and HYMI cannot be ordered by “one-hybrid fitness for binding NBS DNA” value: ≤ 0.2 for the first, ≤ 0.2 for the second.

Compared with QQTS, AKLM is lower in “one-hybrid fitness for binding NBS DNA” value: 0.433 for the first, ≤ 0.2 for the second.

FRCV and MMKT cannot be ordered by “one-hybrid fitness for binding NBS DNA” value: ≤ 0.2 for the first, ≤ 0.2 for the second.

Going from PHFM to QRQL, the “one-hybrid fitness for binding NBS DNA” value rises from ≤ 0.2 to 0.255.

HSMT and ERKM cannot be ordered by “one-hybrid fitness for binding NBS DNA” value: ≤ 0.2 for the first, ≤ 0.2 for the second.

CASA and VWGR cannot be ordered by “one-hybrid fitness for binding NBS DNA” value: ≤ 0.2 for the first, ≤ 0.2 for the second.

FNGT and TNQT cannot be ordered by “one-hybrid fitness for binding NBS DNA” value: ≤ 0.2 for the first, ≤ 0.2 for the second.

GIMS and FHTT cannot be ordered by “one-hybrid fitness for binding NBS DNA” value: ≤ 0.2 for the first, ≤ 0.2 for the second.

QDLC and YSGA cannot be ordered by “one-hybrid fitness for binding NBS DNA” value: ≤ 0.2 for the first, ≤ 0.2 for the second.

INPV and SAAS cannot be ordered by “one-hybrid fitness for binding NBS DNA” value: ≤ 0.2 for the first, ≤ 0.2 for the second.

CPPL and PFKG cannot be ordered by “one-hybrid fitness for binding NBS DNA” value: ≤ 0.2 for the first, ≤ 0.2 for the second.

SVQN and DPDF cannot be ordered by “one-hybrid fitness for binding NBS DNA” value: ≤ 0.2 for the first, ≤ 0.2 for the second.

LQYY and EATM cannot be ordered by “one-hybrid fitness for binding NBS DNA” value: ≤ 0.2 for the first, ≤ 0.2 for the second.

ELMT and GMTV cannot be ordered by “one-hybrid fitness for binding NBS DNA” value: ≤ 0.2 for the first, ≤ 0.2 for the second.

TWCG and MAMM cannot be ordered by “one-hybrid fitness for binding NBS DNA” value: ≤ 0.2 for the first, ≤ 0.2 for the second.

AVLD and IVDG cannot be ordered by “one-hybrid fitness for binding NBS DNA” value: ≤ 0.2 for the first, ≤ 0.2 for the second.

VGTR and NIPS cannot be ordered by “one-hybrid fitness for binding NBS DNA” value: ≤ 0.2 for the first, ≤ 0.2 for the second.

SQRF and GFNN cannot be ordered by “one-hybrid fitness for binding NBS DNA” value: ≤ 0.2 for the first, ≤ 0.2 for the second.

LPTN and PMFS cannot be ordered by “one-hybrid fitness for binding NBS DNA” value: ≤ 0.2 for the first, ≤ 0.2 for the second.

LMVV and VNRY cannot be ordered by “one-hybrid fitness for binding NBS DNA” value: ≤ 0.2 for the first, ≤ 0.2 for the second.

VYQS and KTKI cannot be ordered by “one-hybrid fitness for binding NBS DNA” value: ≤ 0.2 for the first, ≤ 0.2 for the second.

PNQV and RWWT cannot be ordered by “one-hybrid fitness for binding NBS DNA” value: ≤ 0.2 for the first, ≤ 0.2 for the second.

LMFM and HHTE cannot be ordered by “one-hybrid fitness for binding NBS DNA” value: ≤ 0.2 for the first, ≤ 0.2 for the second.

KQDT and PFLS cannot be ordered by “one-hybrid fitness for binding NBS DNA” value: ≤ 0.2 for the first, ≤ 0.2 for the second.

FRWT and SFKY cannot be ordered by “one-hybrid fitness for binding NBS DNA” value: ≤ 0.2 for the first, ≤ 0.2 for the second.

GLWW and EIAR cannot be ordered by “one-hybrid fitness for binding NBS DNA” value: ≤ 0.2 for the first, ≤ 0.2 for the second.

TADI and NWHT cannot be ordered by “one-hybrid fitness for binding NBS DNA” value: ≤ 0.2 for the first, ≤ 0.2 for the second.

NKSN and DMNS cannot be ordered by “one-hybrid fitness for binding NBS DNA” value: ≤ 0.2 for the first, ≤ 0.2 for the second.

Going from DRFV to RRHG, the “one-hybrid fitness for binding NBS DNA” value rises from ≤ 0.2 to 0.362.

First: RNSR
Second: SSHG
The “one-hybrid fitness for binding NBS DNA” value of the first is higher: 0.256 for the first, ≤ 0.2 for the second.

SMRW and QVEF cannot be ordered by “one-hybrid fitness for binding NBS DNA” value: ≤ 0.2 for the first, ≤ 0.2 for the second.

YMRC and HAAI cannot be ordered by “one-hybrid fitness for binding NBS DNA” value: ≤ 0.2 for the first, ≤ 0.2 for the second.

QVPS and LPRT cannot be ordered by “one-hybrid fitness for binding NBS DNA” value: ≤ 0.2 for the first, ≤ 0.2 for the second.

EAKH and LPIQ cannot be ordered by “one-hybrid fitness for binding NBS DNA” value: ≤ 0.2 for the first, ≤ 0.2 for the second.

LPAK and VEYR cannot be ordered by “one-hybrid fitness for binding NBS DNA” value: ≤ 0.2 for the first, ≤ 0.2 for the second.

DIDR and YRVS cannot be ordered by “one-hybrid fitness for binding NBS DNA” value: ≤ 0.2 for the first, ≤ 0.2 for the second.

KHQV and CYLY cannot be ordered by “one-hybrid fitness for binding NBS DNA” value: ≤ 0.2 for the first, ≤ 0.2 for the second.

First: ADPV
Second: KRRT
The “one-hybrid fitness for binding NBS DNA” value of the first is lower: ≤ 0.2 for the first, 0.674 for the second.

HQAD and YCEM cannot be ordered by “one-hybrid fitness for binding NBS DNA” value: ≤ 0.2 for the first, ≤ 0.2 for the second.

GKYG and INLL cannot be ordered by “one-hybrid fitness for binding NBS DNA” value: ≤ 0.2 for the first, ≤ 0.2 for the second.

HYER and TVMQ cannot be ordered by “one-hybrid fitness for binding NBS DNA” value: ≤ 0.2 for the first, ≤ 0.2 for the second.

QKCV and GFNF cannot be ordered by “one-hybrid fitness for binding NBS DNA” value: ≤ 0.2 for the first, ≤ 0.2 for the second.

PNMM and DEAY cannot be ordered by “one-hybrid fitness for binding NBS DNA” value: ≤ 0.2 for the first, ≤ 0.2 for the second.

PYVC and CSLN cannot be ordered by “one-hybrid fitness for binding NBS DNA” value: ≤ 0.2 for the first, ≤ 0.2 for the second.

RFID and SVYR cannot be ordered by “one-hybrid fitness for binding NBS DNA” value: ≤ 0.2 for the first, ≤ 0.2 for the second.

ICIR and IEES cannot be ordered by “one-hybrid fitness for binding NBS DNA” value: ≤ 0.2 for the first, ≤ 0.2 for the second.

Compared with QKIR, SEHQ is lower in “one-hybrid fitness for binding NBS DNA” value: 0.37 for the first, ≤ 0.2 for the second.

YVVG and PNPW cannot be ordered by “one-hybrid fitness for binding NBS DNA” value: ≤ 0.2 for the first, ≤ 0.2 for the second.

QDWW and PLWA cannot be ordered by “one-hybrid fitness for binding NBS DNA” value: ≤ 0.2 for the first, ≤ 0.2 for the second.

FRTQ and ACYY cannot be ordered by “one-hybrid fitness for binding NBS DNA” value: ≤ 0.2 for the first, ≤ 0.2 for the second.

CHRH and AKNI cannot be ordered by “one-hybrid fitness for binding NBS DNA” value: ≤ 0.2 for the first, ≤ 0.2 for the second.

Compared with QRTR, WIFG is lower in “one-hybrid fitness for binding NBS DNA” value: 1.01 for the first, ≤ 0.2 for the second.

RTCC and RMWL cannot be ordered by “one-hybrid fitness for binding NBS DNA” value: ≤ 0.2 for the first, ≤ 0.2 for the second.

Compared with HENT, QANA is higher in “one-hybrid fitness for binding NBS DNA” value: ≤ 0.2 for the first, 0.257 for the second.

IYPS and QLLG cannot be ordered by “one-hybrid fitness for binding NBS DNA” value: ≤ 0.2 for the first, ≤ 0.2 for the second.

AVAV and TTVM cannot be ordered by “one-hybrid fitness for binding NBS DNA” value: ≤ 0.2 for the first, ≤ 0.2 for the second.

DEAS and ESYI cannot be ordered by “one-hybrid fitness for binding NBS DNA” value: ≤ 0.2 for the first, ≤ 0.2 for the second.

VVGL and QGKG cannot be ordered by “one-hybrid fitness for binding NBS DNA” value: ≤ 0.2 for the first, ≤ 0.2 for the second.

Going from QRKE to SSTQ, the “one-hybrid fitness for binding NBS DNA” value falls from 0.368 to ≤ 0.2.

QSNF and GVGC cannot be ordered by “one-hybrid fitness for binding NBS DNA” value: ≤ 0.2 for the first, ≤ 0.2 for the second.

Going from YPEG to QQVQ, the “one-hybrid fitness for binding NBS DNA” value rises from ≤ 0.2 to 0.395.

In the case of QPDA, the “one-hybrid fitness for binding NBS DNA” value is reported as ≤ 0.2.
